# According to PubChem BioAssay AID485281 (National Center for Advancing Translational Sciences (NCATS), 2010):
# Out of some 350,000 compounds screened, about 260 (0.074%) were called active. Inconclusive means that the source gave no clear call. Such entries were picked first, then a sample of the others. The call rests on the fitted dose curve; in most records, active means well fitted inhibition curve with a large enough effect; inconclusive means small, poorly fitted or top-dose-only effect; inactive means no such curve, though single readings can be large or run the other way. A potency beside an inconclusive call is a rough fit, not a confirmed value.
# Target: Ferritin light chain (Equus caballus) (UniProt P02791)
# UniProt P02791, sequence (P02791 whole entry, looked up): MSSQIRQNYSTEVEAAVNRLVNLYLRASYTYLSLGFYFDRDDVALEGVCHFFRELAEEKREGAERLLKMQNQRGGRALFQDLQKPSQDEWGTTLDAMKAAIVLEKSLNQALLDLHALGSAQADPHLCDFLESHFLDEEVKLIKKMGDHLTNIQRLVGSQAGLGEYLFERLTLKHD
# Assay: qHTS Assay for Identification of Novel General Anesthetics; further: nearly all actives have a fitted effect of over 20% in size
# Conditions: apoferritin/1-aminoanthracene competitive binding, fluorescence; series mostly up to 77.5 µM
# In short: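 Probe: 1-aminoanthracene (50% saturated, PBS). Protein: horse-spleen apoferritin, 10 uM. Incubation: 10 min, room temperature. Detection: 380 nm excitation, 535 nm emission. Analysis: normalized response, four-parameter Hill.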
# Potency means the concentration at half of the fitted maximal effect; tags describe the fitted curve by direction and shape.
row,SMILES,Potency
1,COc1ccc(S(=O)(=O)Nc2ccc(Oc3ncccn3)c(Cl)c2)cc1,"inconclusive: 39.8 µM [inhibitor, single point]"
2,CCCNC(=O)NC(=O)COc1ccc2oc3ccccc3c2c1,"inconclusive: 14.1 µM [inhibitor, partial curve, poor fit]"
3,O=C(c1ccccc1)c1cccn1CC(=O)N1CCN(c2ccc(F)cc2)CC1,"inconclusive: 39.8 µM [inhibitor, partial curve]"
4,CCc1nnc(NC(=O)CSc2nnc(CNc3ccc(F)cc3)n2C2CCCCC2)s1,"inconclusive: 35.5 µM [inhibitor, partial curve]"
5,O=C(Cn1nc(-c2ccc(Cl)cc2)ccc1=O)NCC1COCCO1 (stereo unspecified),"inconclusive: 7.94 µM [inhibitor, partial curve]"
6,Cc1sc(N/N=C/c2cccnc2)nc1-c1ccccc1,"inconclusive: 12.6 µM [inhibitor, partial curve]"
7,CCNc1cc2n(c(=O)n1)CCc1cc(OC)c(OC)cc1-2,inactive
8,COc1cccc2c1OCC(C(=O)Nc1nccs1)=C2,inactive
9,CC(C)(C)c1ccc(-c2cn(-c3ccc(Br)cc3)c3[n+]2CCCS3)cc1,inactive
10,CC(=O)Nc1ccc(S(=O)(=O)N2CCN=C2SCc2cccnc2)cc1,inactive
11,COc1ccc(-c2ccc(-c3nnn(CC(=O)N4CCOCC4)n3)cc2)cc1,inactive
12,Cc1ccc(C(=O)Nc2ccc3c(c2)nc(CCNC(=O)c2ccco2)n3C)cc1,inactive
13,Cc1c(C(=O)Nc2cccc(C(F)(F)F)c2)oc2ccc(S(=O)(=O)N3CCC4(CC3)OCCO4)cc12,"inconclusive: 31.6 µM [inhibitor, partial curve]"
14,Cc1ccc2c(c1)N(C(=O)CCC(=O)Nc1ccc(F)cc1F)CC(C)O2 (stereo unspecified),inactive
15,COc1ccc2cc(S(=O)(=O)NC3CC(C)(C)NC(C)(C)C3)ccc2c1,inactive
16,N#C/C(=C/c1ccc(-c2ccccc2)o1)c1nc(-c2cccs2)cs1,inactive
17,CC[C@H](C)[C@H](NC(=O)[C@H](CCC(=O)O)NC(=O)[C@H](CO)NC(=O)[C@@H](NC(=O)[C@@H](N)CO)C(C)C)C(=O)N[C@@H](CCC(N)=O)C(=O)N[C@@H](CC(C)C)C(=O)N[C@@H](CCSC)C(=O)N[C@@H](Cc1cnc[nH]1)C(=O)N[C@@H](CC(N)=O)C(=O)N[C@@H](CC(C)C)C(=O)NCC(=O)N[C@@H](CCCCN)C(=O)N[C@@H](Cc1cnc[nH]1)C(=O)N[C@@H](CC(C)C)C(=O)N[C@@H](CC(N)=O)C(=O)N[C@@H](CO)C(=O)N[C@@H](CCSC)C(=O)N[C@@H](CCC(=O)O)C(=O)N[C@@H](CCCNC(=N)N)C(=O)N[C@H](C(=O)N[C@@H](CCC(=O)O)C(=O)N[C@@H](Cc1c[nH]c2ccccc12)C(=O)N[C@@H](CC(C)C)C(=O)N[C@@H](CCCNC(=N)N)C(=O)N[C@@H](CCCCN)C(=O)N[C@@H](CCCCN)C(=O)N[C@@H](CC(C)C)C(=O)N[C@@H](CCC(N)=O)C(=O)N[C@@H](CC(=O)O)C(=O)N[C@H](C(=O)N[C@@H](Cc1cnc[nH]1)C(=O)N[C@@H](CC(N)=O)C(=O)N[C@@H](Cc1ccccc1)C(=O)N[C@H](C(=O)N[C@@H](C)C(=O)N[C@@H](CC(C)C)C(=O)NCC(=O)O)C(C)C)C(C)C)C(C)C,inactive
18,O=C(CSC1=Nc2ccccc2C2=NC(Cc3c[nH]c4ccccc34)C(=O)N12)NC1CCCCC1 (stereo unspecified),"inconclusive: 44.7 µM [inhibitor, partial curve]"

row,SMILES,Potency
1,CCN(CC)S(=O)(=O)c1ccc(NC(=O)c2ccc3c(=O)n4c(nc3c2)CCCCC4)cc1,"inconclusive: 11.2 µM [inhibitor, partial curve]"
2,O=C(NCc1ccc2c(c1)OCO2)c1cccc(F)c1,"inconclusive: 25.1 µM [inhibitor, partial curve]"
3,Nc1nnc(CCOc2ccccc2Cl)s1,"inconclusive: 35.5 µM [inhibitor, partial curve]"
4,COc1ccc(NC(=O)C2CCCCN2S(=O)(=O)c2ccc(F)cc2)c(OC)c1 (stereo unspecified),"inconclusive: 20 µM [inhibitor, partial curve]"
5,CCOC(=O)C1=C(C)c2ccccc2N(C(=O)OC)C1(C)C(=O)OCC (stereo unspecified),inactive
6,C=CCn1c(CCNC(=O)c2cccs2)nnc1SCC(=O)c1ccc(Br)cc1,"inconclusive: 31.6 µM [inhibitor, partial curve]"
7,COc1ccc(-c2nnc(SCC(=O)N3CCc4ccccc4C3)o2)cc1,"inconclusive: 10 µM [inhibitor, partial curve]"
8,CCN(CC)CCCNC(=O)c1cnc(SC)nc1-c1ccccc1,"inconclusive: 7.08 µM [inhibitor, full curve]"
9,CCN(CC)CCCNC(=O)c1cn(C)c2ccc(S(=O)(=O)N(C)C3CCCCC3)cc2c1=O,"inconclusive: 50.1 µM [inhibitor, single point]"
10,S=C(NCc1ccccc1)Nc1cccc2ccccc12,inactive
11,Cc1ccc(CN(C(=O)COc2ccc([N+](=O)[O-])cc2)c2ccccn2)cc1,"inconclusive: 28.2 µM [inhibitor, partial curve]"
12,COc1ccccc1-c1ccc(=O)n(CC(=O)NCc2ccc3c(c2)OCO3)n1,"inconclusive: 25.1 µM [inhibitor, partial curve]"
13,C=CCN1C(=O)S/C(=C/c2ccc(Sc3nc4ccccc4[nH]3)o2)C1=O,inactive
14,Cc1nn(CC(=O)N2CCC(C)CC2)c(=O)c2cc3sccc3n12,"inconclusive: 25.1 µM [inhibitor, partial curve]"
15,CCOC(=O)c1ccccc1-n1c(C)cc(C2N=C(N)Nc3nc4ccccc4n32)c1C (stereo unspecified),"inconclusive: 31.6 µM [inhibitor, partial curve]"
16,CCOC(=O)Cc1csc(SCC(=O)NC2CCCC(C)C2C)n1 (stereo unspecified),"inconclusive: 28.2 µM [inhibitor, partial curve]"
17,Cc1cccc(-n2c(O)c(C=Nc3cc(O)ccc3C)c3ccccc3c2=O)n1,"inconclusive: 28.2 µM [inhibitor, partial curve]"
18,CN1CCN(NC(=O)CN2C(=O)/C(=C/c3c(Cl)cccc3Cl)SC2=S)CC1,"inconclusive: 39.8 µM [inhibitor, partial curve]"
